PubChem BioAssay AID485294 (National Center for Advancing Translational Sciences (NCATS), 2010)
In all, about 370,000 compounds went through this assay and about 150 (0.041%) were called active. The inconclusive results got no clear call from the source; some entries with a clear call stand among them for comparison. Calls come from the whole dose curve; as a rule, active = well fitted inhibition curve with a large enough effect; inconclusive = small, poorly fitted or top-dose-only effect; inactive = flat fitted curve, though single readings scatter. No potency is given beside an inconclusive call; the fits are too rough.

Target: Beta-lactamase (Escherichia coli (strain K12)) (UniProt P00811)
Chain of UniProt P00811 (P00811 whole entry, looked up): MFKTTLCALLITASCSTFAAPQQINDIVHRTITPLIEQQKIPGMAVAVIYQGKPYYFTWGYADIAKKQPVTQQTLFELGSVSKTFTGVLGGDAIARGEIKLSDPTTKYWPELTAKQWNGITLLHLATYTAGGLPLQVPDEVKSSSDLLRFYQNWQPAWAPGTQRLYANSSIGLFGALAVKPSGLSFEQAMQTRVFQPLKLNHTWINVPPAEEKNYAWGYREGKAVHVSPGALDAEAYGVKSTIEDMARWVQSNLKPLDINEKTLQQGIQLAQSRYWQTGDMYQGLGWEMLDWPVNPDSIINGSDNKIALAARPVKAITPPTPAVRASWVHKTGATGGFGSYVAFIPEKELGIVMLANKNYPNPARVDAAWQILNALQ
Assay: qHTS Inhibitors of AmpC Beta-Lactamase (assay with detergent); note: nearly all actives have a fitted effect of over 25% in size;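 for activity change, negative = inhibition: 0% = no-compound wells and -100% = no-enzyme wells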
Conditions: AmpC hydrolysis of nitrocefin, absorbance 480 nm, 0.01% Triton; activity change, negative = inhibition: at 114 µM (top of the series)
How it was run: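 20 mM phosphate pH 7.0 + 0.01% (detergent screen) or 0.0001% Triton X-100; 5.3 nM AmpC reagent; cpd preinc 15 min RT; nitrocefin (800 uM stock) to start; A480 q20 s × 4 min; Activity was normalised to no-enzyme and no-compound control wells.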
Potency is the fitted concentration of half-maximal effect; tags give direction and shape of the fitted curve.

| Structure (SMILES) | Potency | activity change, negative = inhibition |
| --- | --- | --- |
| COc1ccc(-c2nc(CSCC(=O)NC3CCCC3)c(C)o2)cc1OC | inconclusive [inhibitor, partial curve] | – |
| COCCCNC(=O)c1c(NC(=O)C2COc3ccccc3O2)sc2c1CCCC2 (centres undefined) | – | inactive: -0.479% |
| Cc1ccc(S(=O)(=O)N2CCN(C(=O)N(C)C)CC2)cc1C | – | inactive: -2.49% |
| CCOC(=O)c1sc(SC)nc1N | inconclusive [inhibitor, full curve, poor fit] | – |
| Cc1cccc(N2CCN(S(=O)(=O)c3ccc4c(c3)n(C)c(=O)c(=O)n4C)CC2C)c1 (centres undefined) | – | inactive: -5.49% |
| O=C(CSc1nnc(NC(=O)c2c(F)cccc2F)s1)NCc1ccc(F)cc1 | inconclusive [inhibitor, full curve, poor fit] | – |
| O=C(N/N=C/c1oc(O)c2ccccc12)c1ccccc1O | inconclusive [inhibitor, full curve, poor fit] | – |
| Cc1cccc(NC(=O)CCNS(=O)(=O)c2cc(Br)cnc2N)c1C | – | inactive: 1.55% |
| C[C@@H]1C[C@H]2[C@@H]3CCC4=CC(=O)C=C[C@]4(C)[C@@]3(Cl)[C@@H](O)C[C@]2(C)[C@@]1(OC(=O)c1ccco1)C(=O)CCl | inconclusive [inhibitor, full curve] | – |
| O=C1CCCCC1c1cccc2ccccc12 (centres undefined) | inconclusive [inhibitor, single point] | – |
| O=C(Cn1ncc2c(=O)oc3ccccc3c21)N1CCCN(Cc2ccccc2F)C1 | inconclusive [inhibitor, full curve] | – |
| CC1=Nc2ccccc2/C1=C/c1sc(=N)n(-c2nccs2)c1O | – | inactive: -11.5% |
| CN1CCCN(C(c2ccccc2)c2ccc(Cl)cc2)CC1 (centres undefined) | inconclusive [inhibitor, full curve, poor fit] | – |
| Cc1ccc(C(=O)C(C(=O)/C=C/c2ccccc2)=C2SCCCS2)cc1 | inconclusive [inhibitor, partial curve] | – |
| CN1CCC(=NNC(=O)c2ccc(N(Cc3ccccc3Cl)S(C)(=O)=O)cc2)CC1 | inconclusive [inhibitor, full curve, poor fit] | – |
| CCN(CC)C(=O)Cn1c(=O)n(Cc2ccc(F)cc2)c(=O)c2sccc21 | inconclusive [inhibitor, full curve, poor fit] | – |
| Cc1cccc(-c2nc(CSc3nncn4c3cc3sccc34)c(C)o2)c1 | – | inactive: 1.17% |
| O=C(CSc1nnnn1-c1ccccc1)Nc1nsc(-c2ccccc2)n1 | – | inactive: 1.28% |
| CC(C)Oc1ccc(CNC(=O)C2CCN(C(=O)N3CC(C)Oc4ccccc43)CC2)cc1 (centres undefined) | – | inactive: -9.07% |
